Source: the supplement of paper PMC11417369
± gives the standard deviation of the averaged measurements. This is one part of the list.

tested on: PfAP2-I AP2 domain 3 (GST-tagged); assay: gcPBM binding intensity (ln(normalized median fluorescence intensity)); higher = stronger DNA binding
Method in brief: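 DNA-binding domains from P. falciparum, fused to GST and produced in E. coli, were put on an Agilent 4 × 180k double-stranded probe array for 1 h in 1× PBS holding 1% milk, 0.2 mg/ml BSA, 0.5% salmon testes DNA and 0.03% Triton X-100. Probes were primer-extended, 36 bp long and drawn from intergenic genomic regions, with negative controls included. After Alexa488 anti-GST antibody detection and a 488 nm scan, binding intensity was set as the highest Masliner-normalised natural-log median intensity across replicate spots of either probe orientation.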

Row | Sequence | gcPBM binding intensity (ln)
1 | TATTAAAAAAATGTATGTACATATATAAATTTTTTT [XGTACX_site1094] | 7.66 ± 0.33
2 | AATGATCATAAATACACACACACAAAAAAAAAAAAA [CACACA_site6072] | 7.95 ± 0.62
3 | AAAGTAAAAGAAAGCACACACACATGTATATATGTA [CACACA_site3857] | 7.87 ± 0.48
4 | GATGGATTTATTTAAAGTACATATTTAAAAAACTGT [XGTACX_site7567] | 7.7 ± 0.49
5 | TTTCTCCCATTTTTTAGTACACAAAATATATATGTA [XGTACX_site7218] | 8.42 ± 0.48
6 | AAAAAAAAAAAATATACACACACATATATATATATA [CACACA_site9123] | 9.46 ± 0.32
7 | AACAACAATTTCGTCATACACACATTCAGAATATAT [CACACA_site2371] | 7.91 ± 0.46
8 | AAAATTACTATATGAACACACATGATTAGATATATG [CACACA_site3083] | 7.63 ± 0.45
9 | TATATATATATATACACACACACCCTAAAAATATAT [CACACA_site1611] | 9.31 ± 0.27
10 | TGAAAGAATTAATTTTGTACATATAAAAATTTTATT [XGTACX_site8500] | 7.53 ± 0.4
11 | TTTTTATTTTTAAAGGCACACACATTTTTATTTTTA [CACACA_site8624] | 8.6 ± 0.25
12 | AAATGAAATTTGTATACACACAAATATATTTATATA [CACACA_site6525] | 7.53 ± 0.38
13 | TATTTGTGCCAAAAATGAAAAAGTTTGTATAAAACC [CACACA_negctrl_site1406] | 8 ± 0.63
14 | AATAAATAAATAATATAATGAAATTATAAAATGTGG [TGCATGCA_negctrl_site385] | 7.59 ± 0.45
15 | TGTATTAATAAAAATACACACATCATATTATAGAAA [CACACA_site7629] | 7.6 ± 0.61
16 | ATATATATATAAATATGTACATATATATATTATATA [XGTACX_site120] | 8.83 ± 0.057
17 | TATAAGATTATACAAAGTACATATAAATAATATATT [XGTACX_site1917] | 7.58 ± 0.39
18 | TGAAATAAAAAATATAGTACTCGTTCGTAACCAAAA [XGTACX_site413] | 7.66 ± 0.57
19 | ATGGGTTAAAAATGCACACAAAAAAATATACAGATA [CACACA_site4321] | 8.86 ± 0.057

Row | Sequence | gcPBM binding intensity (ln)
20 | TTAAAAAAAGATTATACACACACATATATAAACATA [CACACA_site8136] | 7.63 ± 0.48
21 | TCCTCTTTTATTTTTACACACGCGTAAACATATATA [CACACA_site667] | 8.43 ± 0.39
22 | TATATTAAATAAAAAGTGCATGTCTCATAAGATGGA [GTGCAC_site9520] | 8.51 ± 0.39
23 | ATAAAATGTTAAGGGTGTACTTTACACATCTCCTAT [XGTACX_site4699] | 7.81 ± 0.4
24 | TATAAATAAAGCAGTACACACATTTATTTTAGATAC [CACACA_site7566] | 8.17 ± 0.21
25 | ATAGGGAATTTATGCACACAGTTAAGGGGGAAAATT [CACACA_site5183] | 9.85 ± 0.13
26 | TTTATACTATAATTATGTACTTATAAAAGGAATAAA [XGTACX_site8027] | 7.82 ± 0.27
27 | TATATAAATATACATTGTACTCAACATTTTCATTAA [XGTACX_site3690] | 7.72 ± 0.59
28 | ATAAACACATCTATATGTACATATATATATATATAC [XGTACX_site347] | 8 ± 0.42
29 | ATGTAAATACATATATGTACACAAATATATATATAT [XGTACX_site3537] | 9.27 ± 0.52
30 | AAGAAAAAATATATATATATATATATATATAATATG [TGCATGCA_negctrl_site417] | 8.53 ± 0.38
31 | TTATATTATTTTTATACATGCATTTCTATATATTTT [TGCATGCA_site164] | 8.59 ± 0.52
32 | ACATAATTAACAAATACACACACACCCACCCACAAA [CACACA_site8069] | 8.7 ± 0.69
33 | TTCAATTTTTTATGAACACACAAAAAAAAAAAAAAA [CACACA_site2533] | 8.01 ± 0.74
34 | ATATATAAGGATGTCACACATAAATATTAACACTAA [CACACA_site5101] | 7.71 ± 0.43
35 | TATTCATAATTTTAATGTACAAAATGGTTTGTAATA [XGTACX_site8493] | 7.46 ± 0.46
36 | TTGTAATTTATTCAAACACACAATTTGGACCTTTTT [CACACA_site1063] | 7.45 ± 0.51
37 | AAAGATAAATTAAAAAGTACATATTTATTCAATGTA [XGTACX_site8543] | 7.45 ± 0.33
38 | TATGATATATATAATACACACATATACATAAGATCT [CACACA_site1119] | 7.68 ± 0.49

Row | Sequence | gcPBM binding intensity (ln)
39 | AATATATATATATTATCACACACTCACGTTTGACAA [CACACA_site8130] | 7.75 ± 0.51
40 | TAAAAAAAACGAACAAGTACACATAAAAAAAAATTA [XGTACX_site5982] | 7.75 ± 0.45
41 | ATTATATCATATATATGTACACATATATAACATGAT [XGTACX_site7] | 7.81 ± 0.28
42 | ATCCATCTTTTAATTTGTACTTATTCTTTTTTCTTT [XGTACX_site5299] | 8.12 ± 0.66
43 | ATATATATATGTAATAGTACATATGATAGTTTGTCA [XGTACX_site1545] | 9.15
44 | ATTAGTTTTATATATAGTACATATAATTTTGAAGGT [XGTACX_site7445] | 8.15 ± 0.42
45 | TGGGTGTAGAACAATTGTACTTTGTAAAAATATAAG [XGTACX_site8464] | 7.96 ± 0.45
46 | TTTTTTTTCAATGGTTGTACAAAGTAAAACAACAAA [XGTACX_site1582] | 7.98 ± 0.38
47 | TTAAATAAAAGGTTTAGTACTTAAAATAAGAAATGA [XGTACX_site6341] | 7.77 ± 0.4
48 | GTAAATATAAACTCAGCACACAAACATATATATGTC [CACACA_site9326] | 8.09 ± 0.35
49 | TTATATATATTTAAAAAAATAACATAAATAAATAAA [CACACA_negctrl_site347] | 7.5 ± 0.59
50 | CACTTTTTTTTTTACTGTACATATACAAATTAAAAA [XGTACX_site1565] | 8.06 ± 0.43
51 | TTTTATTTATCTTAATGTACACATTTATATATATAT [XGTACX_site8588] | 9.05 ± 0.25
52 | TATAATAATTAAAAGTGTACTAAATTTTTACATATA [XGTACX_site2523] | 7.74 ± 0.46
53 | TTCTAAACACATTGACAAATTAATATATTACAGCAA [GTGCAC_negctrl_site121] | 7.72 ± 0.38
54 | TTATAATTCTATTATCTGTTCTTTTTATATTTTTTT [CACACA_negctrl_site855] | 7.25 ± 0.68
55 | TTATTTTTCAATGAAAAGGATTATATATATATATAT [CACACA_negctrl_site757] | 9.38 ± 0.26
56 | AAAATTTATAGTATGGTGCATAAAAATATATATATA | 11.4 ± 0.23
